Assay results reported in PubChem BioAssay AID1347417 (National Center for Advancing Translational Sciences (NCATS), 2020).
Among all 120,000 compounds or so, about 5,300 (4.4%) were called active. The inconclusive results got no clear call from the source; some entries with a clear call stand among them for comparison. Calls follow the shape of the dose curve; as a rule, active = well fitted inhibition curve with a large enough effect; inconclusive = small, poorly fitted or top-dose-only effect; inactive = no such curve, though single readings can be large or run the other way. Potencies of inconclusive entries are doubtful fits and often do not repeat.
Potency is read from the fitted curve at half-maximal effect; tags tell the direction and shape of the fitted curve.

Assay: qHTS Primary assay for Inhibitors of Plasmodium falciparum Dd2 growth in vitro; also: nearly all actives have a fitted effect of over 65% in size
Details: P. falciparum Dd2 growth, SYBR Green, 72 h; series mostly up to 28.9 µM
Outline: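 Readout: SYBR Green fluorescence, 485 nm excitation, 535 nm emission, after ~16 h lysis at 37C. Before that, Dd2-infected red cells (2.5% hematocrit) grew 72 h with compound, 29 uM top final concentration.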
In the case of `Cc1ccc(S(=O)(=O)N2CCCC(CCC(=O)NCc3ccccc3)C2)cc1` (configuration not stated), the Potency is reported as “inactive”. With `Cc1ccc(NC(=O)CSc2c3c(nc4ccccc24)CCCC3)cc1F` the Potency was inconclusive: 17.8 µM [inhibitor, single point]. In the case of `Cc1ccccc1Nc1c(-c2cccc(N(C)C)c2)nc2ccc(Br)cn12`, the Potency is reported as inconclusive: 7.94 µM [inhibitor, single point]. For `Cc1cccc(NC(=O)c2sc3nc4c(cc3c2N)CCCCCC4)c1C`, the Potency was inconclusive: 10 µM [inhibitor, partial curve, poor fit]. With `COCCN1C(=O)CCc2cc(NC(=O)c3ccc(Cl)s3)ccc21` the Potency was inconclusive: 14.1 µM [inhibitor, partial curve, poor fit]. With `COCCN1Cc2ccc(NCC(C)C)nc2C(C)(C(=O)NC2CCC2)C1` (configuration not stated) the Potency was inconclusive: 0.224 µM [inhibitor, full curve]. With `Cc1cc(F)ccc1S(=O)(=O)N1C[C@H](C2CC2)[C@@H](N)C1` the Potency was inconclusive: 7.08 µM [inhibitor, partial curve]. With `O=C(CN1C(=O)NC2(CCCCC2)C1=O)Nc1ccc(Br)cc1F` the Potency was “inactive”. With `Cn1ccnc1CN1C[C@H]2CN(C(=O)NCc3ccccc3)CCN2C1=O` the Potency was “inactive”. With `Cc1cc(C)n(CCC(=O)NCC23CCCC=C2N(CC2CC2)C(=O)CC3)n1` (configuration not stated) the Potency was “inactive”. With `COCCN1C(=O)CO[C@H]2CN(c3nccc(OC)n3)C[C@H]21` the Potency was “inactive”. In the case of `CCN(CC)CCNC(=O)C(=O)NCC(c1cccnc1)N1CCN(c2ccccc2)CC1` (configuration not stated), the Potency is reported as inconclusive: 17.8 µM [inhibitor, single point]. For `CN1CCC(OC2CCN(S(=O)(=O)c3ccccc3C(F)(F)F)CC2)CC1`, the Potency was inconclusive: 11.2 µM [inhibitor, single point]. In the case of `CCN1C(=O)C(Cc2nc3ccccc3c(=O)n2-c2ccc(OC)cc2)c2cc(C)ccc21` (configuration not stated), the Potency is reported as inconclusive: 7.94 µM [inhibitor, single point]. For `N#Cc1cccc(NC(=O)Cn2nc(Cc3ccncc3)c3ccccc3c2=O)c1`, the Potency was inconclusive: 11.2 µM [inhibitor, single point]. In the case of `Cc1ccc(C)c(Nc2nc(-c3ccccc3)c3cc(Br)ccc3n2)c1`, the Potency is reported as inconclusive: 12.6 µM [inhibitor, single point]. In the case of `C[C@@]12CO[C@@H](Cc3ccccc3)O[C@@H]1CC[C@]1(C)C2CC[C@@H](O)[C@H]1CC(=O)NCc1ccccc1` (some centres not stated), the Potency is reported as inconclusive: 4.47 µM [inhibitor, partial curve, poor fit]. For `COc1ccc(CCNC(=O)CCCCn2c(=O)c3ccccc3n(CC(=O)Nc3ccc(C)cc3C)c2=O)cc1OC`, the Potency was inconclusive: 5.62 µM [inhibitor, partial curve, poor fit]. In the case of `Fc1ccc(OCC2CCCN(c3ccc(Cn4ccnc4)cn3)C2)cc1` (configuration not stated), the Potency is reported as active: 11.2 µM. In the case of `NC(=O)[C@@H]1CN(C(=O)c2cccc(F)c2)C[C@H]1COc1ccccc1`, the Potency is reported as “inactive”. With `CC(NC(=O)c1ccc(NC(=O)c2nsc3ccccc23)cc1)c1ccccc1` (configuration not stated) the Potency was inconclusive: 10 µM [inhibitor, partial curve, poor fit]. For `O=C(COc1ccccc1)NCc1ccc2c(c1)CCN2C(=O)c1ccccc1`, the Potency was inconclusive: 17.8 µM [inhibitor, single point]. With `Cn1c(CCNC(=O)CN2CC3CC(C2)[C@H]2CCCC(=O)N2C3)nc2ccccc21` (some centres not stated) the Potency was “inactive”. For `O=C(Nc1cccc(-c2nnc3n2CCCC3)c1)c1cccc(Cl)c1`, the Potency was inconclusive: 7.94 µM [inhibitor, partial curve, poor fit]. With `CCN(Cc1cccnc1)C(=O)c1cc(-c2cnn(CC)c2)nc2cc(C)ccc12` the Potency was “inactive”. For `CN(Cc1cccc2ccccc12)C1CCCc2ccccc21` (configuration not stated), the Potency was active: 11.2 µM. For `Cc1cn2nc(C(=O)N3CCN(C(=O)c4ccco4)CC3)cc2c(N2CCCC2)n1`, the Potency was “inactive”. In the case of `CCNC(=O)[C@@H]1C[C@@H](NC(=O)CN2CCOCC2)CN1Cc1ccc(C)o1`, the Potency is reported as “inactive”. For `O=C(O)C[C@@H]1CCN(C(=O)c2ccco2)C[C@@H]1CCN1CCN(c2ccc(F)cc2)CC1`, the Potency was “inactive”. In the case of `CC(C)(C)OC(=O)N1CCC(c2c(C(=O)NC3CCCCC3)cnn2-c2cccc(F)c2)CC1`, the Potency is reported as inconclusive: 3.55 µM [inhibitor, full curve, poor fit]. With `CCCCN1C(=O)c2ccccc2C(C(=O)Nc2ccccn2)C12CCCC2` (configuration not stated) the Potency was inconclusive: 2.82 µM [inhibitor, full curve, poor fit]. With `COc1cccc(C(=O)N2CCOC[C@H](Oc3ccccc3)C2)c1` the Potency was “inactive”. With `O=C1NCCCCCCN(C(=O)c2cccnc2)[C@H]2C[C@H](c3nc(Cc4ccccc4)no3)C[C@@H]12` the Potency was “inactive”. For `Cc1cc(F)ccc1-c1[nH]nc2ncc(-c3cccnc3)nc12`, the Potency was inconclusive: 2.82 µM [inhibitor, single point]. In the case of `Cc1ccc(NC(=O)Cn2ccn3nc4c(c3c2=O)CCCC4)cc1F`, the Potency is reported as “inactive”. With `NC(=O)CN1CCC(C(=O)NCCCc2csc(N)n2)CC1` the Potency was “inactive”. For `COc1ccc(CNC(=O)c2c(OCC3CC3)cc(=O)n3c2CCOCC3)cc1`, the Potency was “inactive”. In the case of `COc1ccc(CNc2nc(-c3ccccc3)nn2C(=O)c2ccccc2OC)cc1`, the Potency is reported as inconclusive: 3.98 µM [inhibitor, partial curve]. In the case of `Cc1c(-c2cccc(NC(=O)Cc3ccccc3)c2)nc2ncccn12`, the Potency is reported as inconclusive: 17.8 µM [inhibitor, single point]. For `Cc1ccc(NC(=O)N(C)CC2CCOC2)cc1` (configuration not stated), the outcome was “inactive [at 5.79 µM]”. With `CCc1[nH]ncc1C(=O)N[C@H]1CC[C@H](Nc2nccc(-c3ccccn3)n2)C1` the Potency was inconclusive: 5.62 µM [inhibitor, partial curve]. With `CCOc1cc(-c2cc(C(=O)O)c3c(-c4ccccc4)[nH]nc3n2)ccc1O` the Potency was “inactive”. With `CN1CCN(Cc2nc(C3(O)CCN(Cc4ccccc4F)CC3)cs2)CC1` the Potency was inconclusive: 10 µM [inhibitor, partial curve]. In the case of `CC(C)OCCCNC(=O)Cn1c(-c2cccs2)cc2cc(F)ccc21`, the Potency is reported as inconclusive: 11.2 µM [inhibitor, single point]. For `COc1ccc(N2CCN(CCCNC(=O)c3sc4ncccc4c3-n3cccc3)CC2)cc1`, the Potency was inconclusive: 11.2 µM [inhibitor, partial curve]. For `COc1ccc(NC(=O)CN2C(=O)C(C)N=C(c3ccccc3)c3ccccc32)cc1OC` (configuration not stated), the Potency was inconclusive: 17.8 µM [inhibitor, partial curve, poor fit]. For `CCc1nc2c(c(-c3ccc(O)cc3)n1)CN(Cc1cccc3ccccc13)CC2`, the Potency was inconclusive: 2.51 µM [inhibitor, single point]. With `COc1cc2nc(NCCc3ccc(Cl)cc3)n3nc(-c4ccccc4)nc3c2cc1OC` the Potency was inconclusive: 4.47 µM [inhibitor, partial curve, poor fit]. With `O=C(NCc1cccs1)c1ccc(CN2C(=O)NC3(CCOCC3)C2=O)cc1` the Potency was “inactive”. With `CC(C)c1nc2c(c(-c3ccc(O)cc3)n1)CCN(Cc1ccccn1)CC2` the Potency was inconclusive: 3.98 µM [inhibitor, single point]. For `COc1cccc(C(=O)N2C(C(=O)NCC(C)C)COC23CCN(C(=O)c2cccc(F)c2)CC3)c1` (configuration not stated), the Potency was “inactive”. With `COCCN1C(=O)c2ccccc2C(C(=O)Nc2ccccc2OC)C12CCCC2` (configuration not stated) the Potency was inconclusive: 1.41 µM [inhibitor, partial curve, poor fit]. For `c1ccc(-c2noc(Nc3ccc4c(c3)OCCO4)n2)cc1`, the Potency was inconclusive: 12.6 µM [inhibitor, partial curve, poor fit]. In the case of `O=C(NCCc1ccc(Cl)cc1)C1CCCN(c2nc3ncccc3o2)C1` (configuration not stated), the Potency is reported as “inactive”. For `COC1CCC(C(=O)NCC2COc3ncncc3C(=O)N2Cc2ccccc2)CC1` (configuration not stated), the Potency was “inactive”. For `COc1cc(NC(=O)c2c(OC)cc(=O)n3c2CCCC3)cc(OC)c1`, the Potency was “inactive”. In the case of `COc1ccc(-c2nc(CC3CCN(C(=O)c4cc(C)n(C)n4)C3)no2)cc1` (configuration not stated), the Potency is reported as inconclusive: 6.31 µM [inhibitor, partial curve, poor fit]. With `COc1ccc(OC)c(CN2CCC3(CC2)Nc2ccccc2NC3=O)c1` the Potency was inconclusive: 7.94 µM [inhibitor, partial curve, poor fit]. With `O=C(NCc1ccncc1)c1cc(C2CC2)nc2onc(C3CCNC3)c12` (configuration not stated) the Potency was inconclusive: 0.398 µM [inhibitor, partial curve, poor fit]. For `CCCCNC(=O)Cc1csc2nc(C)c(-c3cc(C)n(-c4ccc(C)cc4C)n3)c(=O)n12`, the Potency was inconclusive: 3.98 µM [inhibitor, partial curve]. For `COCc1nc2nc(-c3ccccc3)c(-c3ccnc(OC)c3)cc2n1C`, the Potency was inconclusive: 1.41 µM [inhibitor, partial curve, poor fit]. With `CN(CCc1ccccc1)CC[C@@H]1CC[C@H](O)[C@@H](C(=O)NC2CCCCC2)O1` the Potency was inconclusive: 25.1 µM [inhibitor, single point]. In the case of `CCCCNC(=O)c1ccc(-c2nc(CN3CCc4ccccc43)c(C)o2)cc1`, the Potency is reported as inconclusive: 7.94 µM [inhibitor, partial curve, poor fit]. In the case of `COc1ccc(OC)c(S(=O)(=O)NCCc2sc(C)nc2C)c1`, the Potency is reported as inconclusive: 0.708 µM [inhibitor, full curve, poor fit]. With `O=C1NCCCCCCN(C(=O)c2cnccn2)[C@H]2CCCC[C@@H]12` the Potency was inconclusive: 0.224 µM [inhibitor, full curve, poor fit]. In the case of `Cc1ccc(CNC(=O)CN2C(=O)NC(c3ccccc3Cl)C3=C2COC3=O)cc1` (configuration not stated), the Potency is reported as “inactive”. With `CCn1cc(-c2ccc(F)cc2)cc1C(=O)N1CCCCCC1` the Potency was inconclusive: 17.8 µM [inhibitor, single point].
